Measured values: paper PMC4336329 (PLoS ONE, 2015)
In all, about 310,000 compounds went through this assay and about 14,000 (4.5%) showed an effect of 50% or more. Effects have a minus sign here. This is one part of the list.

biological target: human ether-à-go-go-related gene (hERG) potassium channel (human, UniProt Q12809); test: primary screen, population patch clamp on CHO cells stably expressing hERG
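Further: peak tail current of the secondary pulse compared with the same well before compound.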

Sequence of human ether-à-go-go-related gene (hERG) potassium channel (Q12809 whole entry, looked up): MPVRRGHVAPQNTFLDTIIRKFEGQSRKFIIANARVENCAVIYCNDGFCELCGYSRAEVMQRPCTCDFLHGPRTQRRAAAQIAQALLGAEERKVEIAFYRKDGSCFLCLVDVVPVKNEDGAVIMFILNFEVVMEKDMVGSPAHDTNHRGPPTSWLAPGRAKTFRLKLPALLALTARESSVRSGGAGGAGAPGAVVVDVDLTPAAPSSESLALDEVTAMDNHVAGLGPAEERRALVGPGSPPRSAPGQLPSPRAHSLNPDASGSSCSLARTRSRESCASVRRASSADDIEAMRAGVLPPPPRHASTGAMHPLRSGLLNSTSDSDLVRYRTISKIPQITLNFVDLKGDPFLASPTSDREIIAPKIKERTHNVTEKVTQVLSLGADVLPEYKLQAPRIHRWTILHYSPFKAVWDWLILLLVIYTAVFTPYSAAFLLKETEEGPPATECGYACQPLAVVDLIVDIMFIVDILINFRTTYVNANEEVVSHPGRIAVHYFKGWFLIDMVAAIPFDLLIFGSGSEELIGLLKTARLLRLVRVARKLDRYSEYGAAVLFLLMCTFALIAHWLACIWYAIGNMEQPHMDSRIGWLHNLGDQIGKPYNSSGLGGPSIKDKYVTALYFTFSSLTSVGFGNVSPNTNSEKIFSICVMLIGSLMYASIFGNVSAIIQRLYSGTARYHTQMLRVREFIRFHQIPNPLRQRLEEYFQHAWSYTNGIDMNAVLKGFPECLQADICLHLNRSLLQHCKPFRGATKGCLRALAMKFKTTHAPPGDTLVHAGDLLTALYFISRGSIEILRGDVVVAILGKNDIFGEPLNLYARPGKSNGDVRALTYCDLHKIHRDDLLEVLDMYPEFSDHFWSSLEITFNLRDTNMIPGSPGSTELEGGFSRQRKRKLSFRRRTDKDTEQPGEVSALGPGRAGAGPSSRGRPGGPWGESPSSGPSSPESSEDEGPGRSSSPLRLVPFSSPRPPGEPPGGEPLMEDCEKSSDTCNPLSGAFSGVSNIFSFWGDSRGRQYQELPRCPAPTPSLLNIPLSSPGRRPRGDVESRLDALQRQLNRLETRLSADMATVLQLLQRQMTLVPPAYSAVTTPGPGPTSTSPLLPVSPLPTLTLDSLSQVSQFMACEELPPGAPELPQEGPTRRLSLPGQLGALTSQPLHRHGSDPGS

SMILES | hERG current change (%, negative = inhibition) at 10uM [%]
CC(CNC(=O)c1ccc(OC2CCN(Cc3ccccn3)CC2)cc1)Oc1cccnc1 (stereo not shown) | -21.9
CCOc1ccccc1NC(=O)COc1ccc(S(=O)(=O)N2CCCC2)cc1 | -4.32
CCN(C(=O)COC(=O)c1cccnc1SC)c1c(N)n(Cc2ccccc2)c(=O)[nH]c1=O | 4.47
O=C(O)c1ccccc1C(=O)NC1CCCc2ccccc21 (stereo not shown) | 8.96
Cc1cc2[nH]c(=O)c(=O)[nH]c2cc1S(=O)(=O)NC1CCCCC1C (stereo not shown) | -4.27
CN(C)CCNC(=O)C(=O)Nc1cc2c3c(c1)CCN3C(=O)CC2 | 28.5
c1cc2c(cc1-c1[nH]ncc1CN1C[C@H]3CC[C@H]1C3)OCO2 | -3.58
CCOCC(=O)Nc1cccc(SC)c1 | 2.88
Cc1cccc(/C=N\NC(=O)c2sccc2-n2cccc2)c1 | 12.7
COc1cccc(C(=O)NCC(c2cccs2)N2CCc3ccccc32)c1 (stereo not shown) | 3.3
CC(=O)c1c(C)nc2cc(Cl)ccc2c1N | -17.3
COc1ccc(-c2ccc3c(c2)S(=O)(=O)c2cccc(C(=O)NC4CCCC4)c2C3=O)cc1OC | 16.9
CCn1cc(C(=O)O)c(=O)c2cnc(N3CCN(C(=S)NC(=O)c4ccccc4)CC3)nc21 | 7.34
O=C(CNC(=O)OCc1ccccc1)Oc1cc2oc(=O)cc(-c3ccccc3)c2cc1Cl | 8.89
O=C(COC(=O)COc1ccccc1)Nc1ncc([N+](=O)[O-])s1 | 3.09
O=C(Cc1noc2ccccc12)NNC(=S)Nc1ccc(Cl)cc1 | 16.5
Cc1cccc(CCNC(=O)C2CCN(S(=O)(=O)c3cccc4cccnc34)CC2)c1 | -16.3
Nc1c(Cl)cc(-c2cn(CCC(=O)O)c(-c3ccncc3)n2)cc1Cl | 14
COc1cc(S(=O)(=O)N2CCCCC2)ccc1NC(=O)c1ccccc1Cl | -24.6
Cc1ccccc1C(=O)c1cccn1CC(=O)N1CCCCC1 | 10.6

SMILES | hERG current change (%, negative = inhibition) at 10uM [%]
CCOC(=O)c1c(N)sc(N)c1C(=O)OCC | 4.14
CCN(C(=O)CSc1nnc(Cn2nnc3ccccc32)o1)c1nc(C)cs1 | 2.43
COc1ccc(N=Nc2ccc(O)c3ncccc23)cc1 | 18.5
CCCC[C@@H]1C[C@H]1[C@@H](NC(=O)c1ccco1)c1ccc(C(=O)OC)cc1 | -34
CCCc1nnc(NC(=S)Nc2ccccc2)s1 | 25.6
COc1ccc(NC(=O)CN(C)C(=O)C2CCCO2)cc1 (stereo not shown) | -7.74
COc1cccc(C(=O)N(Cc2cccs2)C2CCS(=O)(=O)C2)c1 (stereo not shown) | 15.7
Cc1ccccc1NC(=S)N(Cc1ccccc1)Cc1cccnc1 | -2.5
CC(C)OC(=O)c1nnn(-c2nonc2N)c1CSc1ccccn1 | -18.1
CSc1sc(C(=O)NCC2CC2)c(-c2cccs2)c1C#N | -21.9
CC(C)(C)CC(=O)NC(=S)NCc1ccco1 | 4.25
CCOc1ccccc1C(=O)NCC(=O)NCC(c1ccco1)N1CCCCC1 (stereo not shown) | -10.5
COC(=O)c1sccc1NC(=S)N1CCC(C(N)=O)CC1 | -2.08
COc1ccc(NC(=O)CCCNC(=O)Cn2cnc3sc(C)c(C)c3c2=O)cc1OC | 16.4
CCc1nc(SCC(=O)N2CCCc3ccccc32)c2oc3ccccc3c2n1 | -18.3
N/C(COc1cccc(Cl)c1)=N\O | 13
CC(C)CC(NC(N)=O)C(=O)NCCc1ccc(Cl)cc1Cl (stereo not shown) | 3.07
O=C(O)CC12CC3CC(C1)CC(n1ncc(NCc4ccco4)c(Cl)c1=O)(C3)C2 | 4.02
COCCOC(=O)/C=C1/NC(=O)CS1 | -11.1
Cc1ccc(NC(CNS(=O)(=O)c2ccc(Cl)cc2)c2ccccc2)cc1 (stereo not shown) | 1.88

SMILES | hERG current change (%, negative = inhibition) at 10uM [%]
COc1cc(-c2nnc(SCC(=O)Nc3ccc4c(c3)OCCO4)o2)cc(OC)c1OC | 4.75
COc1ccc2cc(C(=O)COC(=O)COc3ccc4c(C)cc(=O)oc4c3)ccc2c1 | 6.98
O=C(N/N=C/c1ccc(-c2ccc(Br)cc2)o1)c1ccc2c(c1)OCO2 | -1.81
O=C(O)Cn1ncn(-c2ccc(OC(F)(F)F)cc2)c1=O | 17.2
CC1=CCC2C(=O)N(c3ccc(Br)cc3C)C(=O)C2C1 (stereo not shown) | -14.6
Cc1ccc2oc(=O)c3cc(C(=O)NCCCN4CCCC(C)C4)sc3c2c1 (stereo not shown) | -34.9
Br.CCCc1cc(-c2nc(-c3ccc(C)cc3)cs2)ccn1 | 6.1
O=C(CNC(=O)c1ccccc1)OCc1cc(=O)n2cc(Br)ccc2n1 | -31.6
CC(C)(Oc1ccc(Cl)cc1)C(=O)NCc1ccc(S(N)(=O)=O)cc1 | -4.49
COC(=O)c1ccccc1NC(=O)C(C)Oc1ccccc1 (stereo not shown) | -10.3
C/C(=N\Nc1cccc(C(=O)O)c1)c1ccc(Cl)s1 | 4.6
C=COCCCNc1ncnc2sc(-c3ccccc3)cc12 | 9.86
COc1cc([N+](=O)[O-])cc(/C=C2/SC(=S)N(Cc3ccccc3)C2=O)c1O | 28.8
COc1ccc(OC)c(C2C(C#N)=C(N)Oc3cc(N)ccc32)c1 (stereo not shown) | 7.21
O=P(O)(O)Cc1c(Cl)cccc1Cl | 20.1
COC(=O)c1c(NC(=O)Nc2ccc(Cl)cc2)sc(C)c1C | 10.4
CC1CCCCC1NC(=O)CCCCn1c(=O)[nH]c2ccsc2c1=O (stereo not shown) | 24.9
Cc1ccc(Nc2ccccc2N)cc1 | 20.3
